Measured values taken from PubChem BioAssay AID686978 (National Center for Advancing Translational Sciences (NCATS), 2013).
Out of some 420,000 compounds screened, about 64,000 (15%) were called active. Inconclusive results, whose numbers are uncertain, are shown with a selection of clear calls. Calls come from the whole dose curve; as a rule, active = well fitted inhibition curve with a large enough effect; inconclusive = small, poorly fitted or top-dose-only effect; inactive = flat fitted curve, though single readings scatter. Potencies of inconclusive entries are left out as doubtful fits.

experiment: qHTS for Inhibitors of human tyrosyl-DNA phosphodiesterase 1 (TDP1): qHTS in cells in absence of CPT; details: DT40 Tdp1-/- hTDP1 cells, no CPT, ATP luminescence, 48 h; activity change, negative = growth inhibition: at 46.2 µM (top of the series) unless noted; note: nearly all actives have a fitted effect of over 55% in size
In short: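 Stably hTDP1-transfected Tdp1-null chicken DT40 cells were treated with library compounds minus camptothecin and grown for at least 48 hr at 37 °C, after which cellular ATP was quantified by luminescence.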
% is set by controls: 0 for no effect and ±100 for the full control effect; potency is the fitted concentration of half-maximal effect; tags give direction and shape of the fitted curve.

Row | Structure (SMILES) | Potency | activity change, negative = growth inhibition
1 | C[C@H](CO)N1C[C@H](C)[C@@H](CN(C)Cc2ccc(-c3ccccc3)cc2)Oc2c(NC(=O)Nc3ccc(C(F)(F)F)cc3)cccc2C1=O | inconclusive [inhibitor, single point] | 
2 | COc1ccc(S(=O)(=O)N2CCOCC2)cc1NC(=O)COc1ccc(C(C)=O)cc1OC | inconclusive [inhibitor, single point] | 
3 | C=CCOC(=O)C1=C[C@H](C(C)(C)C)[C@@H](CCCO)[C@H](OCC)O1 | inconclusive [inhibitor, single point] | 
4 | CCS(=O)(=O)C(C)(CCl)C(=O)Nc1ccc(C(=O)OC)cc1 (centres undefined) | inconclusive [inhibitor, partial curve] | 
5 | C[C@H](O)[C@@H]1CN2CCc3c([nH]c4ccccc34)[C@@H]2C[C@@H]1N(C)C(=O)Nc1cc(Cl)cc(Cl)c1 | inconclusive [inhibitor, single point] | 
6 | N=c1sccn1CC(=O)NC(c1ccccc1)c1ccccc1 | inconclusive [inhibitor, single point] | 
7 | Cc1ccccc1NC(=O)c1cc2ccccn2n1 | inconclusive [inhibitor, partial curve] | 
8 | Cc1c(C(=O)NCc2ccc(F)cc2)oc2ccc(S(=O)(=O)N3CCOCC3)cc12 | active: 14.6 µM | 
9 | COC(=O)c1ccc(NC(=O)CC2C(=O)N(c3cccc(F)c3)C(=O)N2CC(C)C)cc1 (centres undefined) | active: 13 µM | 
10 | Cc1ccc(C)c(S(=O)(=O)N2CCCN(C)CC2)c1 |  | inactive: -7.26%
11 | Cc1ccc(S(=O)(=O)Nc2cccnc2)cc1 | active: 29.1 µM | 
12 | CC(=O)Nc1cccc(C(=O)OC(C)C(=O)NC(=O)NC2CCCCC2)c1 (centres undefined) | inconclusive [inhibitor, single point] | 
13 | CN(C(=O)c1cccc(NC(=O)Cc2ccc(NC(=O)C3CCN(S(=O)(=O)c4cccc([N+](=O)[O-])c4)CC3)cc2)c1)C1CCC1 | inconclusive [inhibitor, single point] | 
14 | Cc1ccc(-c2nc(NCCCN(C)C)c3ccccc3n2)cc1 | inconclusive [inhibitor, single point] | 
15 | CCOC(=O)C1CCN(Cc2nnnn2CCc2ccccc2)CC1 |  | inactive: 24.7%
16 | COCCCn1c(=N)c(C(=O)NCc2ccc3c(c2)OCO3)cc2c(=O)n3cccc(C)c3nc21 |  | inactive: 26.2%
17 | COc1ccc(NC(=O)Cn2nnnc2-c2ccccc2F)c(C)c1 |  | inactive: -1.31%
18 | CCc1cc2c3c(c1)/C(=C1/SC(N)=NC1=O)C(=O)N3C(C)(C)C=C2C |  | inactive: 2.17%
19 | CC[C@@H]1CC2=C(C(=O)OC(C)(C)O2)[C@@H](CC)O1 |  | inactive: -9.09%
20 | CC1CCN(CCCCOc2cccc(C(C)C)c2)CC1 | inconclusive [inhibitor, single point] | 
21 | Cc1cc(NC(=O)CSc2n[nH]c(-c3ccc(Cl)cc3Cl)n2)no1 | inconclusive [inhibitor, single point] | 
22 | Cc1ccc(S(=O)(=O)N2CC3CCC2C3)cc1 (centres undefined) |  | inactive: -29.2%
23 | CC(=O)NC(NC(=S)Nc1cccc(Br)c1)C(Cl)(Cl)Cl (centres undefined) | inconclusive [inhibitor, single point] | 
24 | Cc1ccc(-c2nnc(Nc3ccc(C(=O)N(C)C)cc3)c3ccccc23)cc1S(=O)(=O)NCC1CCCO1 (centres undefined) | active: 23.1 µM | 
25 | Cc1ccc(-n2nc(C(=O)N3CCCCC3)c(=O)n(C)c2=O)cc1 |  | inactive: -7.65%

Row | Structure (SMILES) | Potency | activity change, negative = growth inhibition
26 | CCCC1=C(C(=O)OCC)C(c2cc(Cl)cc(OC)c2OCc2ccccc2)NC(=O)N1 (centres undefined) | inconclusive [inhibitor, single point] | 
27 | CCCN(CCC)CCNC(=O)CS(=O)Cc1nc(-c2ccc(OC)c(OC)c2)oc1C (centres undefined) | inconclusive [inhibitor, single point] | 
28 | Cc1cc(C)cc(Nc2ncc3c(n2)CCCC3=O)c1 |  | inactive: -7.1%
29 | COC(=O)[C@]12CCCCC=C1N(Cc1cccc3ccccc13)C(=O)[C@H](CC(=O)NCc1cccc(C(F)(F)F)c1)C2 | inconclusive [inhibitor, single point] | 
30 | C=CCn1cc(/C=N/NC(=O)COc2cccc3cccnc23)c2ccccc21 | active: 16.4 µM | 
31 | CCC1SC2=NC(C)=C(C(=O)OC)C(c3ccc(C)cc3)N2C1=O (centres undefined) | inconclusive [inhibitor, full curve] | 
32 | COc1ccc(CC(=O)NC2CCCCCC2)c(OC)c1 |  | inactive: 10.4%
33 | O=C(CCc1ccc(S(=O)(=O)N2CCOCC2)cc1)NCCc1ccccn1 |  | inactive: -13.1%
34 | Cn1cc(CN2CCN(CC(C)(C)C)C(CCO)C2)c2ccccc21 (centres undefined) | inconclusive [inhibitor, single point] | 
35 | O=c1[nH]c2ccc(S(=O)(=O)N3CCCC3)cc2[nH]1 |  | inactive: -28.6%
36 | COc1cccc(CCn2c(N)cc(=O)[nH]c2=S)c1OC | inconclusive [inhibitor, single point] | 
37 | O=C(NC1CCN(S(=O)(=O)c2ccc(F)cc2)CC1)c1cccnc1 |  | inactive: 8.94%
38 | [O-][N+]1=C(c2cccs2)CN(O)C1 |  | inactive: -15.5%
39 | COc1cc(/C=N/NC(=O)c2ccncc2)ccc1OC(=O)c1cccc(F)c1 |  | inactive: -22.4%
40 | O=C(c1ccc(S(=O)(=O)NCc2ccco2)cc1)N1CCN(c2ccc(F)cc2)CC1 | inconclusive [inhibitor, single point] | 
41 | CCN(CC)C(=O)c1nn(-c2ccccc2)c2c1C1CCC2(C)C1(C)C (centres undefined) | active: 16.4 µM | 
42 | COCCn1cnc2c1c(=O)n(Cc1ccc(Br)cc1)c(=O)n2Cc1ccccc1 |  | inactive: -5.41%
43 | O=C(CSc1nnnn1-c1ccc2c(c1)OCCO2)N1CCN(C(=O)c2ccco2)CC1 | inconclusive [inhibitor, partial curve] | 
44 | Cc1nonc1NC(=O)CSc1nc(C2CCCCC2)nc2ccccc12 | active: 23.1 µM | 
45 | COc1ccc(CNC(=O)C(c2ccco2)N(C(=O)Cc2cccs2)c2cccnc2)cc1 (centres undefined) | inconclusive [inhibitor, single point] | 
46 | Cc1nc(N)sc1N=Nc1ccccc1C(F)(F)F | inconclusive [inhibitor, partial curve] | 
47 | CCOc1cc(N2CCOCC2)c(OCC)cc1NC(=O)COC(=O)[C@@H]1CCCN1S(=O)(=O)c1ccccc1F | inconclusive [inhibitor, single point] | 
48 | CCC(C)(C)NC(=O)C(Sc1ccccc1)c1ccccc1 (centres undefined) | inconclusive [inhibitor, partial curve] | 
49 | N#Cc1ccc(CSCC(=O)O)cc1 |  | inactive: -3.66%
50 | COc1ccc(CN2C(=O)N(c3cccc(C)c3)C(=O)C2CC(=O)Nc2ccc(F)cc2)cc1OC (centres undefined) | inconclusive [inhibitor, partial curve] | 

Row | Structure (SMILES) | Potency | activity change, negative = growth inhibition
51 | O=C(CN(Cc1ccco1)C(=O)c1ccc(Cl)cc1)Nc1c(Cl)cc(Cl)cc1Cl |  | inactive: -28.7%
52 | CCOc1ccccc1NS(=O)(=O)c1ccc2c(c1)N(C)CCO2 | inconclusive [inhibitor, single point] | 
53 | CC(O)CNc1nc2c(c(=O)n(C)c(=O)n2C)n1CCc1ccccc1 (centres undefined) | active: 16.4 µM | 
54 | CCOC(=O)N1CCN(C(=O)CSc2nnc(-c3ccc(C)c(C)c3)o2)CC1 | active: 14.6 µM | 
55 | Cc1ccc(CNC(=O)c2cc3cc(C)ccc3n2C)cc1 |  | inactive: -7.47%
56 | COc1ccc(-n2c(=O)c3ccc(C(=O)NCc4ccc(C)cc4)cc3n(CC(=O)Nc3cccc(F)c3)c2=O)cc1 | inconclusive [inhibitor, partial curve] | 
57 | OC(c1ccc(-c2ccccc2)cc1)c1ncc(-c2ccccc2Cl)[nH]1 (centres undefined) | inconclusive [inhibitor, single point] | 
58 | COc1ccc(Cl)cc1NC(=O)Nc1ccc(Br)cn1 | inconclusive [inhibitor, single point] | 
59 | Cc1ccc(O/C=C2\OC(=O)c3ccccc32)cc1 |  | inactive: 4.91%
60 | O=C(CCS(=O)(=O)c1ccc(Cl)cc1)N1CCN(c2ccc(F)cc2)CC1 | active: 18.4 µM | 
61 | COc1cccc(C(=O)Nc2nc3c(s2)CCCC3)c1 | inconclusive [inhibitor, single point] | 
62 | CCOC(=O)c1ccccc1NC(=S)N1CC(C)CC(C)C1 (centres undefined) | inconclusive [inhibitor, single point] | 
63 | Cc1coc(C)c1C(=O)Nc1ccc2ccccc2c1 |  | inactive: 14.1%
64 | CC(=O)Nc1ccc(C(=O)OCC(=O)NC(=O)NCc2ccccc2)cc1 |  | inactive: -22.7%
65 | CC1=C(C(=O)Nc2ccccc2)C(c2cccnc2)n2ncnc2N1 (centres undefined) |  | inactive: 13.5%
66 | CCCCNC(=O)C1(C)CCN1C(=O)Cc1cccc2ccccc12 (centres undefined) | inconclusive [inhibitor, single point] | 
67 | COCc1cn(-c2nc3ccccc3s2)nn1 |  | inactive: 0.0143%
68 | COc1ccc(C(=S)N2CCOCC2)cc1OS(=O)(=O)c1ccc(Br)cc1 | inconclusive [inhibitor, single point] | 
69 | Cc1cc(C)cc(N(C(=O)CNC(=O)c2ccco2)C(C(=O)NC2CCCCC2)c2cccnc2)c1 (centres undefined) |  | inactive: -22.5%
70 | CN(C)c1ccc(/C=C/c2ccnc3c(Cl)cccc23)cc1 | active: 7.94 µM | 
71 | O=C(CSC(=S)N1CCCCC1)c1c(F)cccc1F | active: 8.2 µM | 
72 | Cc1ccc(OCC(=O)NNC(=O)C2CCC2)cc1C |  | inactive: 8.64%
73 | CC(C)c1ccc(S(=O)(=O)NC2CCS(=O)(=O)C2)cc1 (centres undefined) | inconclusive [inhibitor, single point] | 
74 | C[C@H](NC(=O)c1ncn(Cc2ccccc2)c1C(=O)N[C@@H](C)c1ccccc1)c1ccccc1 | inconclusive [inhibitor, single point] | 
